{
  "source": "the supplement of paper PMC4604168 (melanoma cell lines)",
  "note": "This is one part of the list. Most values come without repeats; read them as rough.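 Note: cells treated in 1,536-well plates, then fixed and DAPI-stained, with nuclei counted from automated high-throughput microscope images.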",
  "data": [
    {"test_system": "UACC62", "experiment": "cell count relative to DMSO control; melanoma cells; higher = more viable cells", "details": "library dose: standard library concentration; 72 h; first compound 2 µM", "units": {"cell count": "%"}, "values": [
      {"smiles": "C[C@@H](N)c1ccc(C(=O)Nc2ccnc3[nH]ccc23)cc1", "note": "+ CO[C@@H]1[C@H](N(C)C(=O)c2ccccc2)C[C@H]2O[C@]1(C)n1c3ccccc3c3c4c(c5c6ccccc6n2c5c31)C(=O)NC4 [Midostaurin] (partner dose 0.4 µM)", "cell count": 46.8},
      {"smiles": "Cn1sc(=O)n(Cc2ccccc2)c1=O", "note": "+ Nc1cccc2c1CN(C1CCC(=O)NC1=O)C2=O [lenalidomide] (partner dose 5 µM)", "cell count": 99.9},
      {"smiles": "Cn1sc(=O)n(Cc2ccccc2)c1=O", "note": "+ COc1cc2c(Oc3ccc4[nH]c(C)cc4c3F)ncnc2cc1OCCCN1CCCC1 [cediranib] (partner dose 2 µM)", "cell count": 82.1},
      {"smiles": "C[C@@H](N)c1ccc(C(=O)Nc2ccnc3[nH]ccc23)cc1", "note": "+ Cn1sc(=O)n(Cc2ccccc2)c1=O [TDZD-8] (partner dose 2 µM)", "cell count": 84.6},
      {"smiles": "C[C@@H](N)c1ccc(C(=O)Nc2ccnc3[nH]ccc23)cc1", "note": "+ CC(C)C[C@H](NC(=O)[C@H](Cc1ccccc1)NC(=O)c1cnccn1)B(O)O [Bortezomib] (partner dose 0.005 µM)", "cell count": 40.9},
      {"smiles": "CCCCCCCCCCCCCCCCCCOP(=O)([O-])OC1CC[N+](C)(C)CC1", "note": "[Perifosine] + C#Cc1cccc(Nc2ncnc3cc(OCCOC)c(OCCOC)cc23)c1 [erlotinib] (partner dose 4 µM)", "cell count": 52.6},
      {"smiles": "Cn1sc(=O)n(Cc2ccccc2)c1=O", "note": "+ CNC(=O)c1cc(Oc2ccc(NC(=O)Nc3ccc(Cl)c(C(F)(F)F)c3)cc2)ccn1 [sorafenib] (partner dose 2 µM)", "cell count": 123},
      {"smiles": "CCCCCCCCCCCCCCCCCCOP(=O)([O-])OC1CC[N+](C)(C)CC1", "note": "[Perifosine] + C[C@]1(c2nc3c(C(N)=O)cccc3[nH]2)CCCN1 [Veliparib] (partner dose 7 µM)", "cell count": 55.9},
      {"smiles": "Cn1sc(=O)n(Cc2ccccc2)c1=O", "note": "+ Cc1cc(Nc2cc(N3CCN(C)CC3)nc(/C=C/c3ccccc3)n2)n[nH]1 [ENMD2076] (partner dose 0.2 µM)", "cell count": 117},
      {"smiles": "CCCCCCCCCCCCCCCCCCOP(=O)([O-])OC1CC[N+](C)(C)CC1", "note": "[Perifosine] + COc1ccc(C2=N[C@@H](c3ccc(Cl)cc3)[C@@H](c3ccc(Cl)cc3)N2C(=O)N2CCNC(=O)C2)c(OC(C)C)c1 [Nutlin-3] (partner dose 0.5 µM)", "cell count": 66.3},
      {"smiles": "Cn1sc(=O)n(Cc2ccccc2)c1=O", "note": "+ Cn1c(=O)n(-c2ccc(C(C)(C)C#N)cc2)c2c3cc(-c4cnc5ccccc5c4)ccc3ncc21 [NVP-BEZ235] (partner dose 0.02 µM)", "cell count": 78.1},
      {"smiles": "C[C@@H](N)c1ccc(C(=O)Nc2ccnc3[nH]ccc23)cc1", "note": "+ Nc1nc(F)nc2c1ncn2[C@@H]1O[C@H](CO)[C@@H](O)[C@@H]1O [fludarabine] (partner dose 1 µM)", "cell count": 43.7},
      {"smiles": "C[C@@H](N)c1ccc(C(=O)Nc2ccnc3[nH]ccc23)cc1", "note": "+ O=C(Nc1cccc(Cl)c1)Nc1ncc(CCNc2ncnc3ccsc23)s1 [SNS314] (partner dose 0.004 µM)", "cell count": 76},
      {"smiles": "Cn1sc(=O)n(Cc2ccccc2)c1=O", "note": "+ O=C(O)c1ccc2c(c1)nc(Nc1cccc(Cl)c1)c1ccncc12 [CX4945] (partner dose 2 µM)", "cell count": 71.7},
      {"smiles": "Cn1sc(=O)n(Cc2ccccc2)c1=O", "note": "+ COc1ccc(Cl)c(Nc2nc3ccccc3nc2NS(=O)(=O)c2cccc(NC(=O)C(C)(C)N)c2)c1 [XL147] (partner dose 4 µM)", "cell count": 112},
      {"smiles": "CCCCCCCCCCCCCCCCCCOP(=O)([O-])OC1CC[N+](C)(C)CC1", "note": "[Perifosine] + Cn1nnc2c(C(N)=O)ncn2c1=O [temozolomide] (partner dose 10 µM)", "cell count": 69.6},
      {"smiles": "CCCCCCCCCCCCCCCCCCOP(=O)([O-])OC1CC[N+](C)(C)CC1", "note": "[Perifosine] + Clc1ccc(Nc2nnc(Cc3ccncc3)c3ccccc23)cc1 [vatalanib] (partner dose 10 µM)", "cell count": 109},
      {"smiles": "C[C@@H](N)c1ccc(C(=O)Nc2ccnc3[nH]ccc23)cc1", "note": "+ COc1cc(Nc2ncc(F)c(Nc3ccc4c(n3)NC(=O)C(C)(C)O4)n2)cc(OC)c1OC [Tamatinib] (partner dose 2 µM)", "cell count": 65},
      {"smiles": "C[C@@H](N)c1ccc(C(=O)Nc2ccnc3[nH]ccc23)cc1", "note": "+ COc1cc2c(Oc3ccc4[nH]c(C)cc4c3F)ncnc2cc1OCCCN1CCCC1 [cediranib] (partner dose 2 µM)", "cell count": 86.4}
    ]}
  ]
}
